Some of the results follow.
Tests used:
Assay in all cases: glycan array binding signal (z-score within array); higher = stronger binding
Settings in all cases: glycan notation: IUPAC condensed, linker removed
Glc(b1-4)Glc = target: Glc(b1-4)Glc
In short: (§1)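 From the Consortium for Functional Glycomics database, 3228 arrays were curated, keeping only those whose protein sequence was available. Binding is given as a within-array Z-score averaged across arrays sharing a protein sequence and across linkers. Negative Z-scores can be read as non-binding.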

Glc(b1-6)Glc = target: Glc(b1-6)Glc
In short: as §1

GlcA(b1-3)Gal = target: GlcA(b1-3)Gal
In short: as §1

GlcA(b1-3)GlcNAc = target: GlcA(b1-3)GlcNAc
In short: as §1

GlcA(b1-6)Gal = target: GlcA(b1-6)Gal
In short: as §1

[1] = target: GlcA3S(b1-3)Gal(b1-4)GlcNAc(b1-2)Man
In short: as §1

[2] = target: GlcA3S(b1-3)Gal(b1-4)GlcNAc(b1-3)Gal(b1-4)Glc
In short: as §1

[3] = target: GlcNAc(a1-3)Gal(b1-4)GlcNAc
In short: as §1

[4] = target: GlcNAc(a1-4)Gal(b1-3)GlcNAc
In short: as §1

[5] = target: GlcNAc(a1-4)Gal(b1-4)GalNAc
In short: as §1

[6] = target: GlcNAc(a1-4)Gal(b1-4)GlcNAc
In short: as §1

[7] = target: GlcNAc(a1-4)Gal(b1-4)GlcNAc(b1-3)Gal(b1-4)Glc
In short: as §1

[8] = target: GlcNAc(a1-4)Gal(b1-4)GlcNAc(b1-3)Gal(b1-4)GlcNAc
In short: as §1

[9] = target: GlcNAc(a1-4)Gal(b1-4)GlcNAc(b1-3)Gal(b1-4)GlcNAc(b1-3)Gal(b1-4)GlcNAc
In short: as §1

[10] = target: GlcNAc(a1-4)Gal(b1-4)GlcNAc(b1-3)Gal(b1-4)[Fuc(a1-3)]GlcNAc(b1-3)Gal(b1-4)[Fuc(a1-3)]GlcNAc
In short: as §1

[11] = target: GlcNAc(a1-6)Gal(b1-4)GlcNAc
In short: as §1

[12] = target: GlcNAc(b1-2)Gal(b1-3)GalNAc
In short: as §1

[13] = target: GlcNAc(b1-2)Man(a1-3)[GlcNAc(b1-2)Man(a1-6)]Man(b1-4)GlcNAc(b1-4)GlcNAc
In short: as §1

[14] = target: GlcNAc(b1-2)Man(a1-3)[GlcNAc(b1-2)Man(a1-6)]Man(b1-4)GlcNAc(b1-4)[Fuc(a1-6)]GlcNAc
In short: as §1

[15] = target: GlcNAc(b1-2)Man(a1-3)[GlcNAc(b1-4)][GlcNAc(b1-2)Man(a1-6)]Man(b1-4)GlcNAc(b1-4)GlcNAc
In short: as §1

[16] = target: GlcNAc(b1-2)Man(a1-3)[GlcNAc(b1-4)][GlcNAc(b1-2)Man(a1-6)]Man(b1-4)GlcNAc(b1-4)[Fuc(a1-6)]GlcNAc
In short: as §1

[17] = target: GlcNAc(b1-2)[GlcNAc(b1-4)]Man(a1-3)[GlcNAc(b1-2)Man(a1-6)]Man(b1-4)GlcNAc(b1-4)GlcNAc
In short: as §1

[18] = target: GlcNAc(b1-2)[GlcNAc(b1-4)]Man(a1-3)[GlcNAc(b1-4)][GlcNAc(b1-2)Man(a1-6)]Man(b1-4)GlcNAc(b1-4)GlcNAc
In short: as §1

[19] = target: GlcNAc(b1-2)[GlcNAc(b1-4)]Man(a1-3)[GlcNAc(b1-4)][GlcNAc(b1-2)[GlcNAc(b1-6)]Man(a1-6)]Man(b1-4)GlcNAc(b1-4)GlcNAc
In short: as §1

[20] = target: GlcNAc(b1-2)[GlcNAc(b1-4)]Man(a1-3)[GlcNAc(b1-4)][GlcNAc(b1-2)[GlcNAc(b1-6)]Man(a1-6)]Man(b1-4)GlcNAc(b1-4)[Fuc(a1-6)]GlcNAc
In short: as §1

[21] = target: GlcNAc(b1-2)[GlcNAc(b1-6)]Man(a1-6)[GlcNAc(b1-2)Man(a1-3)]Man(b1-4)GlcNAc(b1-4)GlcNAc
In short: as §1

[22] = target: GlcNAc(b1-2)[GlcNAc(b1-6)]Man(a1-6)[GlcNAc(b1-2)Man(a1-3)]Man(b1-4)GlcNAc(b1-4)[Fuc(a1-6)]GlcNAc
In short: as §1

[23] = target: GlcNAc(b1-2)[GlcNAc(b1-6)]Man(a1-6)[GlcNAc(b1-4)][GlcNAc(b1-2)Man(a1-3)]Man(b1-4)GlcNAc(b1-4)GlcNAc
In short: as §1

GlcNAc(b1-3)Fuc = target: GlcNAc(b1-3)Fuc
In short: as §1

GlcNAc(b1-3)Gal = target: GlcNAc(b1-3)Gal
In short: as §1

[24] = target: GlcNAc(b1-3)Gal(b1-3)GalNAc
In short: as §1

GlcNAc(b1-3)Gal(b1-4)Glc = target: GlcNAc(b1-3)Gal(b1-4)Glc
In short: as §1

[25] = target: GlcNAc(b1-3)Gal(b1-4)GlcNAc
In short: as §1

[26] = target: GlcNAc(b1-3)Gal(b1-4)GlcNAc(b1-2)Man(a1-3)[GlcNAc(b1-3)Gal(b1-4)GlcNAc(b1-2)Man(a1-6)]Man(b1-4)GlcNAc(b1-4)GlcNAc
In short: as §1

[27] = target: GlcNAc(b1-3)Gal(b1-4)GlcNAc(b1-2)Man(a1-3)[GlcNAc(b1-3)Gal(b1-4)GlcNAc(b1-2)Man(a1-6)]Man(b1-4)GlcNAc(b1-4)[Fuc(a1-6)]GlcNAc
In short: as §1

[28] = target: GlcNAc(b1-3)Gal(b1-4)GlcNAc(b1-2)[GlcNAc(b1-3)Gal(b1-4)GlcNAc(b1-6)]Man(a1-6)[GlcNAc(b1-3)Gal(b1-4)GlcNAc(b1-2)Man(a1-3)]Man(b1-4)GlcNAc(b1-4)GlcNAc
In short: as §1

[29] = target: GlcNAc(b1-3)Gal(b1-4)GlcNAc(b1-3)Gal(b1-4)GlcNAc
In short: as §1

B1: Als1 (Candida albicans), P46590 (protein)
chain: KTITGVFDSFNSLTWSNAANYAFKGPGYPTWNAVLGWSLDGTSANPGDTFTLNMPCVFKYTTSQTSVDLTADGVKYATCQFYSGEEFTTFSTLTCTVNDALKSSIKAFGTVTLPIAFNVGGTGSSTDLEDSKCFTAGTNTVTFNDGDKDISIDVEFEKSTVDPSGYLYASRVMPSLNKVTTLFVAPQCENGYTSGTMGFSSSNGDVAIDCSNIHIGITKGLNDWNYPVSSESFSYTKTCTSNGIQIKYQNVPAGYRPFIDAYISATDVNQYTLAYTNDYTCAGSRLQSKPFTLRWTGYKNSDAGSNGIVIVATTRTVTDSTTAVTTLPFNPSVDKTKTIEILQPIPTTTITTSYVGVTTSYLTKTAPIGETATVIVDVPYHTTTTVTSEWTGTITTTTTRTNPTDSIDTVVVQVP
- glycan array binding signal (z-score) (Glc(b1-4)Glc): 1.05
- glycan array binding signal (z-score) (Glc(b1-6)Glc): 1.43
- glycan array binding signal (z-score) (GlcA(b1-3)Gal): -0.385
- glycan array binding signal (z-score) (GlcA(b1-3)GlcNAc): 0.319
- glycan array binding signal (z-score) (GlcA(b1-6)Gal): -0.568
- glycan array binding signal (z-score) [1]: -0.192
- glycan array binding signal (z-score) [2]: 0.175
- glycan array binding signal (z-score) [3]: -0.244
- glycan array binding signal (z-score) [4]: 0.256
- glycan array binding signal (z-score) [5]: 0.307
- glycan array binding signal (z-score) [6]: -0.228
- glycan array binding signal (z-score) [7]: -0.414
- glycan array binding signal (z-score) [8]: -0.287
- glycan array binding signal (z-score) [9]: -0.362
- glycan array binding signal (z-score) [10]: 0.471
- glycan array binding signal (z-score) [11]: -0.491
- glycan array binding signal (z-score) [12]: -0.623
- glycan array binding signal (z-score) [13]: -0.365
- glycan array binding signal (z-score) [14]: 0.767
- glycan array binding signal (z-score) [15]: -0.554
- glycan array binding signal (z-score) [16]: -0.648
- glycan array binding signal (z-score) [17]: -0.625
- glycan array binding signal (z-score) [18]: 0.441
- glycan array binding signal (z-score) [19]: -0.508
- glycan array binding signal (z-score) [20]: -0.407
- glycan array binding signal (z-score) [21]: 0.276
- glycan array binding signal (z-score) [22]: 0.632
- glycan array binding signal (z-score) [23]: -0.481
- glycan array binding signal (z-score) (GlcNAc(b1-3)Fuc): -0.431
- glycan array binding signal (z-score) (GlcNAc(b1-3)Gal): 4.47
- glycan array binding signal (z-score) [24]: -0.321
- glycan array binding signal (z-score) (GlcNAc(b1-3)Gal(b1-4)Glc): -0.381
- glycan array binding signal (z-score) [25]: -0.393
- glycan array binding signal (z-score) [26]: -0.591
- glycan array binding signal (z-score) [27]: -0.201
- glycan array binding signal (z-score) [28]: 4.37
- glycan array binding signal (z-score) [29]: -0.343
